Hit rate of the full screen: of about 310,000 compounds, about 2,200 (0.71%) showed an effect of 50% or more. Effects have a minus sign here. This is one part of the list.
biological target: human ether-à-go-go-related gene (hERG) potassium channel (human, UniProt Q12809); assay: primary screen, population patch clamp on CHO cells stably expressing hERG
Sequence (Q12809 whole entry, looked up): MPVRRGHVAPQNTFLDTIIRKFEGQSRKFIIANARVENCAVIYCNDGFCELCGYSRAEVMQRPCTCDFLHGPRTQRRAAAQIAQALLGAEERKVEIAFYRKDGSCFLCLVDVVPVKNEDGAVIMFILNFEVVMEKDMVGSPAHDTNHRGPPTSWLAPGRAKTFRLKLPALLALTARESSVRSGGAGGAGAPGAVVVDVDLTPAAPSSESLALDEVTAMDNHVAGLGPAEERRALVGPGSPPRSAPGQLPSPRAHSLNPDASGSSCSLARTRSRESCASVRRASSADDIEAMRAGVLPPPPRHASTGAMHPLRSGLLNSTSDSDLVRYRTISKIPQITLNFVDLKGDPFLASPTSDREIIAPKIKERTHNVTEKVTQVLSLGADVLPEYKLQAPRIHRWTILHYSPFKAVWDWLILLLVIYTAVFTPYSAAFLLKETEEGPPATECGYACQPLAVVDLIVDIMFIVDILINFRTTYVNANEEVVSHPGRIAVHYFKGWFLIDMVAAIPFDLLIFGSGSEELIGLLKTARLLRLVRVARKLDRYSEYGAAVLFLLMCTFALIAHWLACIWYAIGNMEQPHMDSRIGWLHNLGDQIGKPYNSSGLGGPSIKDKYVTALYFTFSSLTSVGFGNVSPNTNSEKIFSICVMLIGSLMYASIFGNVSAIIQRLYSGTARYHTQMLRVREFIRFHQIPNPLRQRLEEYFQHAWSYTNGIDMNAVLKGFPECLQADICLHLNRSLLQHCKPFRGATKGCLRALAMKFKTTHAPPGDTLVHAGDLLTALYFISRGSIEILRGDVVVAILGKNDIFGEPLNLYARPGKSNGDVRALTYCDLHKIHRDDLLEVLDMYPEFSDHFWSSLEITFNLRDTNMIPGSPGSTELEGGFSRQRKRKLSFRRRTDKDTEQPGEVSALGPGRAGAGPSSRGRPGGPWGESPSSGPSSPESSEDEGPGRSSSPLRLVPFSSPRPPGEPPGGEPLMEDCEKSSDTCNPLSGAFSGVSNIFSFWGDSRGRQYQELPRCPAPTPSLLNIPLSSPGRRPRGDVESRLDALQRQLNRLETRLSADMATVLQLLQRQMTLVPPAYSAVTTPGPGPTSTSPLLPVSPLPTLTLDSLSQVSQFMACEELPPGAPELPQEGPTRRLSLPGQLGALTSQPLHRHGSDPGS

First: O=C(Nc1ccccc1)N1CCOCC1
Second: Cn1nc(C(=O)Nc2ccccc2N2CCOCC2)ccc1=O
The “hERG current change (%, negative = inhibition) at 1uM” value of the first is higher: 10.9% for the first, 1.23% for the second.

First: O=C(NCc1ccccc1)C1=C[C@@H](c2ccc3c(c2)OCO3)C[C@@H](OCc2ccc(CO)cc2)O1
Second: COc1ccc(CNC(=O)c2cc3c(=O)n4ccccc4nc3n(Cc3cccnc3)c2=N)cc1
The “hERG current change (%, negative = inhibition) at 1uM” value of the first is higher: 4.61% for the first, -32.6% for the second.

Going from CCO[C@@H]1OC(C(=O)NCc2ccccc2)=C[C@H](C2CCCCC2)[C@H]1CCCO to O=C(COC(=O)c1oc2ccccc2c1CSc1ccc(Cl)cc1)NC1CCCC1, the “hERG current change (%, negative = inhibition) at 1uM” value rises from 0.672% to 9.53%.

First: CCCc1[nH]nc2c1C(c1ccsc1)C(C#N)=C(N)O2 (stereo not drawn)
Second: COC(=O)c1ccc(C2C(C#N)=C(C)NC3=C2C(=O)CC(C)(C)C3)cc1 (stereo not drawn)
The “hERG current change (%, negative = inhibition) at 1uM” value of the first is higher: 12.7% for the first, 8.22% for the second.

Going from Cc1cccc(NC(=O)Cn2nc(-c3ccco3)ccc2=O)c1C to Cc1ccc(C)c(-c2ccc(=O)n(Cc3cccc(Br)c3)n2)c1, the “hERG current change (%, negative = inhibition) at 1uM” value falls from 16.7% to 11.8%.

Compared with CCCc1cc(=O)[nH]c(SCC(=O)Nc2ccc(C)c(S(=O)(=O)N3CCCCC3)c2)n1, COc1ccc(OC)c(NC(=O)c2cc(S(=O)(=O)N3CCCCC3)c[nH]2)c1 is higher in “hERG current change (%, negative = inhibition) at 1uM” value: 11% for the first, 15.7% for the second.

First: O=C(c1nc2ccccc2[nH]1)c1ccccc1[N+](=O)[O-]
Second: COc1cccc(N2C(=O)CC(N3CCC(c4nc5ccccc5[nH]4)CC3)C2=O)c1 (stereo not drawn)
The “hERG current change (%, negative = inhibition) at 1uM” value of the first is higher: 11.2% for the first, 5.76% for the second.

Compared with CSCC[C@H](NC(=O)c1ccc(Cl)c(S(=O)(=O)N2CCCC2)c1)c1nc2ccccc2[nH]1, Cc1cccc(Oc2ccc(S(=O)(=O)N3CCCCC3)cc2NC(=O)C2=COCCO2)c1 is higher in “hERG current change (%, negative = inhibition) at 1uM” value: -1.71% for the first, 5.13% for the second.

First: O=C(N/N=C/C=C\c1ccco1)c1cccs1
Second: O=C(NNC(=O)c1cccs1)c1ccco1
The “hERG current change (%, negative = inhibition) at 1uM” value of the first is higher: 17.6% for the first, 10.4% for the second.

Going from CCOC(=O)c1c(C)oc2c1c(C(c1cccnc1)N1CCOCC1)c(O)c1ccccc12 (stereo not drawn) to CC1Cc2cc(/C(O)=C3\C(=O)C(=O)N(CCN4CCOCC4)C3c3ccccc3F)ccc2O1 (stereo not drawn), the “hERG current change (%, negative = inhibition) at 1uM” value falls from 12.3% to 11.6%.

Going from COc1cc2c(cc1OC)C(COc1ccccc1OC)N(C(=O)C(C)C)CC2 (stereo not drawn) to CCc1ccccc1NC(=O)[C@@H]1CCC(=O)N1C1OC(=O)c2c1ccc(OC)c2OC (stereo partly drawn), the “hERG current change (%, negative = inhibition) at 1uM” value rises from 1.25% to 2.6%.

Going from O=C(NCCCn1ccnc1)c1ccc2ccccc2c1 to O=C(CCn1c(=O)oc2ccccc21)Nc1ccc(C(=O)O)cc1, the “hERG current change (%, negative = inhibition) at 1uM” value falls from 0.463% to -10.5%.

Compared with CCOc1ccc(-n2ccnc(SCC(=O)Nc3ccc(CC)cc3)c2=O)cc1, CCOc1ccc2nc(NS(=O)(=O)c3ccc(NC(C)=O)cc3)sc2c1 is lower in “hERG current change (%, negative = inhibition) at 1uM” value: 9.98% for the first, -4.77% for the second.

Going from CC(C)(C)c1ccc(N=C2SCC(=O)N2Cc2cccs2)cc1 to Cc1ccc(S(=O)(=O)N(C)C)cc1NC(=O)c1cc(C(C)(C)C)nn1Cc1ccccc1, the “hERG current change (%, negative = inhibition) at 1uM” value rises from 9.57% to 11.6%.

Compared with NS(=O)(=O)c1ccc(NC(=O)COC(=O)CN2C(=O)C3CC=CCC3C2=O)cc1 (stereo not drawn), O=C(Nc1ccc(Br)cc1)c1ccc(N2C(=O)C3CC=CCC3C2=O)cc1 (stereo not drawn) is higher in “hERG current change (%, negative = inhibition) at 1uM” value: 3.31% for the first, 8.54% for the second.

Compared with N/N=C1\CCCc2c1[nH]c1ccc([N+](=O)[O-])cc21, O=C(CO/N=C/c1cccc([N+](=O)[O-])c1)NC1CCCCC1 is higher in “hERG current change (%, negative = inhibition) at 1uM” value: 1.27% for the first, 2.34% for the second.

Going from CCn1cc(Cl)c(C(=O)Nc2cc(C(=O)OC)cc(C(=O)OC)c2)n1 to CCn1ncc(Br)c1C(=O)Nc1cccc(F)c1, the “hERG current change (%, negative = inhibition) at 1uM” value rises from 0.585% to 11.5%.

First: COCCn1c(-c2ccc(F)cc2)nc2cccnc21
Second: Cc1cc(Cl)ccc1Oc1nc(-c2ccc(F)cc2)ccc1C#N
The “hERG current change (%, negative = inhibition) at 1uM” value of the first is higher: 14.8% for the first, -14.8% for the second.

Compared with C/C(=N\NC(=O)C1(C)CC1(Br)Br)c1cccc(NC(=O)C2CCC2)c1 (stereo not drawn), COc1ccc(Cc2nnc(NC(=O)C3CCN(C(=O)c4ccco4)CC3)s2)cc1 is higher in “hERG current change (%, negative = inhibition) at 1uM” value: -2.65% for the first, 11% for the second.

Compared with Cc1ccc(Oc2ncccc2NC(=O)CC2(CC(=O)O)CCCC2)c2c1CCC2, Cc1ccc(C)c(-n2nnnc2SCC(=O)Nc2cccc(-c3nnc4n3CCCCC4)c2)c1 is higher in “hERG current change (%, negative = inhibition) at 1uM” value: 9.24% for the first, 10.2% for the second.

First: CCC(=O)OC1(Cc2ccc(CC)cc2)CC(C)N(C)CC1C.Cl (stereo not drawn)
Second: CCc1ccc(C(=O)COC(=O)c2cnccn2)cc1
The “hERG current change (%, negative = inhibition) at 1uM” value of the first is lower: -11% for the first, 10.8% for the second.

Compared with CC1(C)OC(=O)N(c2ccccc2)C12C=Cc1cc(Br)ccc1O2 (stereo not drawn), CC(NC(=O)CN(C)Cc1ccc(Br)cc1)c1ccccc1 (stereo not drawn) is higher in “hERG current change (%, negative = inhibition) at 1uM” value: -0.931% for the first, 8.27% for the second.

Going from CN(C(=O)c1ccc(C#N)cc1)c1nnc(-c2cnccn2)s1 to c1cn(-c2ccc(-c3ccnc4ncnn34)cc2)cn1, the “hERG current change (%, negative = inhibition) at 1uM” value falls from 2.24% to 1.91%.

Compared with O=C(O)C1=NOC(CNc2ncc(C(F)(F)F)cc2Cl)C1 (stereo not drawn), CCOc1ccc(C(=O)O)cn1 is lower in “hERG current change (%, negative = inhibition) at 1uM” value: 18% for the first, 15.2% for the second.

Compared with CCCNc1nc(N2CCCC2)nc(N2CCCC2)n1, CCOC(=O)N1CCC(n2c(SCC(=O)N3CCCC3)nc3ccccc3c2=O)CC1 is lower in “hERG current change (%, negative = inhibition) at 1uM” value: 3% for the first, 0.488% for the second.

First: Cc1nc2sc(C(c3cccs3)N3CCN(Cc4ccccc4)CC3)c(O)n2n1 (stereo not drawn)
Second: O=C(NCC(c1ccco1)N1CCN(c2ccccc2)CC1)C(=O)NC1CC1 (stereo not drawn)
The “hERG current change (%, negative = inhibition) at 1uM” value of the first is lower: -50.1% for the first, 4.7% for the second.

Compared with COc1ccc(NC(=O)CCCn2c(=O)oc3ccccc32)cc1Cl, COc1ccccc1CNC(=O)C(CC(C)C)NS(=O)(=O)c1ccc2c(c1)oc(=O)n2C (stereo not drawn) is higher in “hERG current change (%, negative = inhibition) at 1uM” value: -2.56% for the first, 5.84% for the second.

Going from [O-]/[N+](=C\c1ccccc1)[C@@H]1CCCC[C@@H]1/[N+]([O-])=C/c1ccccc1 to CC(NC(=O)C1CCCN1S(=O)(=O)c1ccccc1)c1ccccc1 (stereo not drawn), the “hERG current change (%, negative = inhibition) at 1uM” value falls from 13.3% to 10.1%.

Going from CCC(C(=O)NC(C)(C)C)N(Cc1ccco1)C(=O)CNS(=O)(=O)c1ccc(OC)cc1 (stereo not drawn) to COc1ccc(S(=O)(=O)Nc2ccc(CC#N)cc2)cc1, the “hERG current change (%, negative = inhibition) at 1uM” value rises from 9.65% to 16.7%.

First: CCOc1ccc(-c2noc(-c3cccnc3)n2)cc1OCC
Second: COC(=O)CCN(c1ccccc1)S(=O)(=O)c1cc(-c2cc(C)no2)ccc1OC
The “hERG current change (%, negative = inhibition) at 1uM” value of the first is higher: 12.6% for the first, 4.41% for the second.

First: Cc1cc(N2CCNCC2)nc2ccccc12
Second: Cc1[nH]n2c(=O)cc(C(C)C)nc2c1-c1ccccc1
The “hERG current change (%, negative = inhibition) at 1uM” value of the first is higher: 5.65% for the first, -0.606% for the second.

Compared with Cc1oc(-c2ccc(-c3ccccc3)cc2)nc1CN(CCO)C(C)C, CC(C)CCNC(=O)c1ccc(CS(=O)(=O)Cc2ccccc2F)o1 is lower in “hERG current change (%, negative = inhibition) at 1uM” value: 5.48% for the first, 2.63% for the second.

Compared with Cc1c2c(nc3nc4ccccc4n13)CC(C)(C)CC2=O, CC1(C)CC(=O)c2sc(NC(=O)CCS(=O)(=O)c3ccccc3)nc2C1 is higher in “hERG current change (%, negative = inhibition) at 1uM” value: -9.29% for the first, 3.35% for the second.

Going from CC(=O)COc1ncn(-c2ccccc2)n1 to COc1ccc(N2C(=O)Cc3ccccc3C2=O)cc1, the “hERG current change (%, negative = inhibition) at 1uM” value rises from 9.12% to 16.3%.

Compared with Cc1ccc(NC(=O)CCS(=O)(=O)c2ccc3nc(C)sc3c2)cc1, NS(=O)(=O)c1ccc(CNC(=S)Nc2ccc(Cl)c(Cl)c2)cc1 is lower in “hERG current change (%, negative = inhibition) at 1uM” value: 10.7% for the first, 9.72% for the second.

Compared with O=C(CSc1nnc(-c2cccc(F)c2)o1)N1CCOCC1, Cc1cc(C)nc(SCCC(=O)N2CCOCC2)n1 is higher in “hERG current change (%, negative = inhibition) at 1uM” value: 17.1% for the first, 18.6% for the second.

Going from CCOCCCNC(=O)C(c1ccccc1)N(Cc1ccc2c(c1)OCO2)C(=O)CNC(C)=O (stereo not drawn) to Cc1c(C(=O)N(Cc2ccc(F)cc2)C2CCS(=O)(=O)C2)oc2ccccc12 (stereo not drawn), the “hERG current change (%, negative = inhibition) at 1uM” value rises from 7.66% to 12.8%.

Going from CCOc1ccc2nc(SCC(=O)c3ccc(Cl)s3)sc2c1 to Cc1cc2c(c(SCC(=O)NCc3ccc(Cl)cc3)n1)C(=O)OC2, the “hERG current change (%, negative = inhibition) at 1uM” value rises from 4.83% to 6.4%.

First: CCC(C)C(=O)Nc1nnc(SCC(=O)NC2CCCCC2)s1 (stereo not drawn)
Second: CCOC(=O)NC(Nc1nnc(SCC)s1)(C(F)(F)F)C(F)(F)F
The “hERG current change (%, negative = inhibition) at 1uM” value of the first is lower: 15% for the first, 17% for the second.

Going from CCC(C)(C)C(=O)Nc1cccc(Cl)c1C to Cc1ccc(N(C)/N=C/c2ccc(Cl)cc2Cl)nn1, the “hERG current change (%, negative = inhibition) at 1uM” value falls from 12.2% to 2.55%.

Going from CCCNC(=O)CCn1cc(-c2ccc(OC)cc2)nc1CCN to O=C(NN1C(=O)NC2(CCCCC2)C1=O)c1ccc(-c2ccc(Cl)cc2)o1, the “hERG current change (%, negative = inhibition) at 1uM” value falls from 16.1% to -0.331%.

Compared with N#C/C(=C/c1ccc(O)c(O)c1)C(=O)NCc1ccc(Cl)cc1, O=C(NNC(=O)c1n[nH]c(=O)c2ccccc12)c1ccc(Br)cc1 is lower in “hERG current change (%, negative = inhibition) at 1uM” value: 13.4% for the first, -1.26% for the second.

Going from C[N+](C)(C)CC(=O)O.[Cl-] to CCc1cc2cc(C)cc(C)c2[nH]c1=S, the “hERG current change (%, negative = inhibition) at 1uM” value rises from 2.41% to 12.6%.

Compared with Cc1ccc(NC2CCCN(C(=O)C3CCCCC3)C2)cc1C (stereo not drawn), Cc1ccc(C(=O)CSC2=C(C#N)C(c3ccco3)CC(=O)N2)c(C)c1 (stereo not drawn) is lower in “hERG current change (%, negative = inhibition) at 1uM” value: 6.76% for the first, -4.12% for the second.

First: Cc1ccccc1CN1C(=O)C(O)(CC(=O)c2ccncc2)c2ccccc21 (stereo not drawn)
Second: CC(C)CCNc1nc2c(cc1C#N)COC(C)(C)C2
The “hERG current change (%, negative = inhibition) at 1uM” value of the first is higher: 13.1% for the first, 11.6% for the second.

— PMC4336329 (PLoS ONE, 2015)
